From patent publication US20170157165A1 (RIBOMIC, published 2017) come the findings set out here.

For this test, the target named is T1, human FGFR4 fused with the Fc portion of IgG (manufactured by R&D Systems) (human, UniProt P22455 22-369).
T1 construct: Bought construct, captured on Protein A on a CM5 chip (about 1,000 RU); not shown: Fc portion of IgG
T1 sequence (looked up): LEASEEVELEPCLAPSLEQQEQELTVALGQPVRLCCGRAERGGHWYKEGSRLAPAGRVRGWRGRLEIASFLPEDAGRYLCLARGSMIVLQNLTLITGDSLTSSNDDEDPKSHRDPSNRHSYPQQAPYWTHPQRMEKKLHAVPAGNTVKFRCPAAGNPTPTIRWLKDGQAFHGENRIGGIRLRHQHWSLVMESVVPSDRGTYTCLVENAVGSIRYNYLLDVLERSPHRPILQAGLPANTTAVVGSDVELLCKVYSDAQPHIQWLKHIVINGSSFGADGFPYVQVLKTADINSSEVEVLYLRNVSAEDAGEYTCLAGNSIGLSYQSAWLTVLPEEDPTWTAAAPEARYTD
Kind of test: SPR (BIAcore2000), receptor-Fc captured on Protein A on CM5 chip, FGF2 0.1 uM + heparin 0.1 uM as analyte. The protocol:
BIAcore2000 manufactured by BIAcore was used for the measurement. As directed in BIAcore Company's protocol, Protein A (21181, manufactured by PIERCE) was immobilized on a CM5 sensor chip. About 1,000 RU of human FGFR1α (IIIc), R2α (IIIc), R3 (IIIc), R4 (manufactured by R&D Systems) fused with the Fc portion of IgG (manufactured by R&D systems) was each immobilized thereon. As analyte, a mixture of FGF2 (0.1 μM), heparin (0.1 μM) (manufactured by Pfizer) and aptamer (0.15 μM) was flown. Before an inhibitory test, a mixture of FGF2 and heparin was confirmed to bind to 4 kinds of receptors. […] A sensorgram showing that the aptamer shown by aptamer ID 1 inhibits binding of FGF2 and FGFR1α(IIIc), 2α(IIIc), 3(IIIc), 4 is shown in FIG. 2.
A general note: Surface plasmon resonance follows binding to a sensor surface in real time, without labels.

B1: Human FGF2 (manufactured by Peprotech Inc.) (ligand)
chain: not shown
notes: also called bFGF; basic fibroblast growth factor
Regarding B1, the binding result is recorded as “binds”.
